pIC50: −log10 of the molar value. IC50 is the fitted dose that halves viability relative to control wells, and lower means more sensitive; fits outside the tested doses are given as limits. AUC, from the same fit, is the share of area under the viability curve across the 256-fold dose range; values near 1 show little effect. For some assays here: An inferred top dose is not printed in the source and was worked back from the curve model.
Key:
Assay in all cases: Viability of human cancer cell lines after 72 h of drug (GDSC screen)
[1] = compound: Cc1cnc(CNC(=O)c2c(=O)c3ccc(N4CCCN(C)CC4)nc3n3c2sc2ccccc23)cn1 [CX-5461]; conditions: top dose 10.24 µM; top dose inferred
Procedure: (§1)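 Human cancer cell lines in 384-well plates, medium with 10% serum, drug for 72 h over a 256-fold dose range (nine 2-fold or five 4-fold steps up to the top dose). Adherent lines were fixed and stained with the nucleic acid dye Syto60, suspension lines read with resazurin; signal relative to control wells, capped at 0 and 100%. One two-parameter sigmoid per drug and line, fitted in a mixed model over all curves with the slope shared within a line.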

[2] = compound: Cc1cccc(Nc2nc(-c3ccncc3)cs2)c1 [STF-62247]; conditions: top dose 10.24 µM; top dose inferred
Procedure: as §1

[3] = compound: COCC(=O)NC/C=C/c1ccc2ncnc(Nc3ccc(Oc4ccc(C)nc4)c(C)c3)c2c1 [CP724714]; conditions: top dose 10.24 µM; top dose inferred
Procedure: as §1

[4] = compound: COC1=CC(c2cc3ccccc3[nH]2)=N/C1=C\c1[nH]c(C)cc1C [Obatoclax mesylate]; conditions: top dose 16 µM
Procedure: as §1

Row | Cell Line | AUC [1] | pIC50 [1] | AUC [2] | pIC50 [2] | AUC [3] | pIC50 [3] | AUC [4] | pIC50 [4]
1 | NCI-H520 (lung squamous cell carcinoma, adherent) | 0.541 | 6.08 | 0.98 | < 4.99 | 0.976 | < 4.99 | 0.234 | 6.78
2 | NCI-H522 (lung adenocarcinoma, adherent) | 0.984 | < 4.99 | 0.97 | < 4.99 | 0.98 | < 4.99 | 0.32 | 6.55
3 | NCI-H596 (lung adenocarcinoma, adherent) | 0.851 | < 4.99 | 0.982 | < 4.99 | 0.954 | < 4.99 | 0.288 | 6.68
4 | NCI-H647 (non-small cell lung carcinoma, adherent) | 0.775 | 5.37 | 0.984 | < 4.99 | 0.954 | < 4.99 | 0.349 | 6.43
5 | NCI-H661 (large cell lung carcinoma, adherent) | 0.911 | < 4.99 | 0.965 | < 4.99 | 0.927 | < 4.99 | 0.535 | 5.90
6 | NCI-H727 (lung carcinoid, adherent) | 0.972 | < 4.99 | 0.961 | < 4.99 | 0.954 | < 4.99 | 0.196 | 7.19
7 | NCI-H810 (large cell lung carcinoma, adherent) | 0.778 | 5.40 | 0.968 | < 4.99 | 0.988 | < 4.99 | 0.171 | 6.97
8 | NCI-H838 (lung adenocarcinoma, adherent) | 0.937 | < 4.99 | 0.981 | < 4.99 | 0.946 | < 4.99 | 0.373 | 6.36
9 | NCI-H841 (small cell lung carcinoma, adherent) | 0.957 | < 4.99 | 0.977 | < 4.99 | 0.977 | < 4.99 | 0.608 | 5.70
10 | NCI-H1048 (small cell lung carcinoma, adherent) | 0.868 | 5.11 | 0.984 | < 4.99 | 0.973 | < 4.99 | 0.528 | 5.93
11 | NCI-H1435 (lung adenocarcinoma, semi-adherent) | 0.992 | < 4.99 | 0.993 | < 4.99 | 0.993 | < 4.99 | 0.51 | 5.97
12 | NCI-H1437 (lung adenocarcinoma, adherent) | 0.985 | < 4.99 | 0.976 | < 4.99 | 0.962 | < 4.99 | 0.381 | 6.33
13 | NCI-H1563 (lung adenocarcinoma, adherent) | 0.974 | < 4.99 | 0.982 | < 4.99 | 0.949 | < 4.99 | 0.739 | 5.25
14 | NCI-H1568 (lung adenocarcinoma, adherent) | 0.982 | < 4.99 | 0.981 | < 4.99 | 0.968 | < 4.99 | 0.299 | 6.63
15 | NCI-H1573 (lung adenocarcinoma, adherent) | 0.99 | < 4.99 | 0.987 | < 4.99 | 0.989 | < 4.99 | 0.843 | 4.97
16 | NCI-H1623 (lung adenocarcinoma, adherent) | 0.985 | < 4.99 | 0.985 | < 4.99 | 0.976 | < 4.99 | 0.685 | 5.43
17 | NCI-H1651 (lung adenocarcinoma, adherent) | 0.985 | < 4.99 | 0.987 | < 4.99 | 0.983 | < 4.99 | 0.413 | 6.25
18 | NCI-H1688 (small cell lung carcinoma, adherent) | 0.976 | < 4.99 | 0.984 | < 4.99 | 0.952 | < 4.99 | 0.422 | 6.22
19 | NCI-H1693 (lung adenocarcinoma, adherent) | 0.977 | < 4.99 | 0.969 | < 4.99 | 0.969 | < 4.99 | 0.548 | 5.84

Row | Cell Line | AUC [1] | pIC50 [1] | AUC [2] | pIC50 [2] | AUC [3] | pIC50 [3] | AUC [4] | pIC50 [4]
20 | NCI-H1703 (lung adenocarcinoma, adherent) | 0.982 | < 4.99 | 0.977 | < 4.99 | 0.95 | < 4.99 | 0.437 | 6.19
21 | NCI-H1734 (lung adenocarcinoma, adherent) | 0.902 | < 4.99 | 0.983 | < 4.99 | 0.982 | < 4.99 | 0.413 | 6.25
22 | NCI-H1755 (lung adenocarcinoma, adherent) | 0.948 | < 4.99 | 0.984 | < 4.99 | 0.863 | < 4.99 | 0.743 | 5.25
23 | NCI-H1781 (lung adenocarcinoma, adherent) | 0.986 | < 4.99 | 0.989 | < 4.99 | 0.989 | < 4.99 | 0.655 | 5.57
24 | NCI-H1792 (lung adenocarcinoma, adherent) | 0.989 | < 4.99 | 0.985 | < 4.99 | 0.989 | < 4.99 | 0.306 | 6.52
25 | NCI-H1793 (lung adenocarcinoma, adherent) | 0.982 | < 4.99 | 0.976 | < 4.99 | 0.979 | < 4.99 | 0.842 | < 4.80
26 | NCI-H1915 (large cell lung carcinoma, adherent) | 0.843 | 5.13 | 0.98 | < 4.99 | 0.984 | < 4.99 | 0.472 | 6.08
27 | NCI-H1944 (lung adenocarcinoma, adherent) | 0.896 | < 4.99 | 0.979 | < 4.99 | 0.951 | < 4.99 | 0.492 | 6.02
28 | NCI-H1993 (lung adenocarcinoma, adherent) | 0.983 | < 4.99 | 0.914 | < 4.99 | 0.94 | < 4.99 | 0.731 | 5.24
29 | NCI-H2009 (lung adenocarcinoma, adherent) | 0.979 | < 4.99 | 0.986 | < 4.99 | 0.98 | < 4.99 | 0.339 | 
30 | NCI-H2023 (lung adenocarcinoma, adherent) | 0.944 | < 4.99 | 0.983 | < 4.99 | 0.979 | < 4.99 | 0.454 | 6.14
31 | NCI-H2029 (small cell lung carcinoma, adherent) | 0.969 | < 4.99 | 0.992 | < 4.99 | 0.992 | < 4.99 | 0.846 | 5.00
32 | NCI-H2030 (lung adenocarcinoma, adherent) | 0.919 | < 4.99 | 0.963 | < 4.99 | 0.936 | < 4.99 | 0.305 | 6.58
33 | NCI-H2052 (mesothelioma, adherent) | 0.972 | < 4.99 | 0.973 | < 4.99 | 0.969 | < 4.99 | 0.446 | 6.16
34 | NCI-H2085 (lung adenocarcinoma, adherent) | 0.849 | 5.06 | 0.932 | < 4.99 | 0.966 | < 4.99 | 0.163 | 7.08
35 | NCI-H2087 (lung adenocarcinoma, semi-adherent) | 0.84 | 5.11 | 0.977 | < 4.99 | 0.978 | < 4.99 | 0.22 | 6.85
36 | NCI-H2110 (non-small cell lung carcinoma, adherent) | 0.666 | 5.73 | 0.986 | < 4.99 | 0.969 | < 4.99 | 0.439 | 6.17
37 | NCI-H2122 (lung adenocarcinoma, adherent) | 0.989 | < 4.99 | 0.989 | < 4.99 | 0.988 | < 4.99 | 0.251 | 6.69
38 | NCI-H2170 (lung squamous cell carcinoma, adherent) | 0.952 | < 4.99 | 0.984 | < 4.99 | 0.952 | < 4.99 | 0.259 | 6.71

Row | Cell Line | AUC [1] | pIC50 [1] | AUC [2] | pIC50 [2] | AUC [3] | pIC50 [3] | AUC [4] | pIC50 [4]
39 | NCI-H2172 (non-small cell lung carcinoma, adherent) | 0.97 | < 4.99 | 0.981 | < 4.99 | 0.959 | < 4.99 | 0.591 | 5.71
40 | NCI-H2228 (lung adenocarcinoma, adherent) | 0.907 | < 4.99 | 0.956 | < 4.99 | 0.976 | < 4.99 | 0.458 | 6.14
41 | NCI-H2291 (lung adenocarcinoma, adherent) | 0.984 | < 4.99 | 0.98 | < 4.99 | 0.981 | < 4.99 | 0.965 | < 4.80
42 | NCI-H2342 (lung adenocarcinoma, adherent) | 0.985 | < 4.99 | 0.986 | < 4.99 | 0.969 | < 4.99 | 0.14 | 7.20
43 | NCI-H2347 (lung adenocarcinoma, adherent) | 0.952 | < 4.99 | 0.972 | < 4.99 | 0.983 | < 4.99 | 0.468 | 6.10
44 | NCI-H2405 (lung adenocarcinoma, adherent) | 0.976 | < 4.99 | 0.986 | < 4.99 | 0.977 | < 4.99 | 0.293 | 6.62
45 | NCI-H2444 (non-small cell lung carcinoma, adherent) | 0.988 | < 4.99 | 0.987 | < 4.99 | 0.981 | < 4.99 | 0.687 | 5.44
46 | NCI-H2452 (mesothelioma, adherent) | 0.98 | < 4.99 | 0.979 | < 4.99 | 0.982 | < 4.99 | 0.868 | < 4.80
47 | NCI-H3122 (lung adenocarcinoma, adherent) | 0.804 | 5.27 | 0.987 | < 4.99 | 0.971 | < 4.99 | 0.26 | 6.70
48 | NUGC-3 (stomach, adherent) | 0.982 | < 4.99 | 0.976 | < 4.99 | 0.965 | < 4.99 | 0.154 | 7.14
49 | NUGC-4 (stomach, adherent) | 0.871 | 5.02 | 0.703 | 5.62 | 0.962 | < 4.99 | 0.058 | > 7.20
50 | NY (osteosarcoma, adherent) | 0.986 | < 4.99 | 0.988 | < 4.99 | 0.988 | < 4.99 | 0.21 | 6.85
51 | OAW-28 (ovary, adherent) | 0.98 | < 4.99 | 0.964 | < 4.99 | 0.973 | < 4.99 | 0.3 | 6.63
52 | OAW-42 (ovary, adherent) | 0.969 | < 4.99 | 0.983 | < 4.99 | 0.973 | < 4.99 | 0.272 | 6.68
53 | OCUM-1 (stomach, adherent) | 0.987 | < 4.99 | 0.986 | < 4.99 | 0.981 | < 4.99 | 0.37 | 6.38
54 | OE19 (oesophagus, adherent) | 0.986 | < 4.99 | 0.984 | < 4.99 | 0.89 | < 4.99 | 0.561 | 5.82
55 | OE21 (oesophagus, adherent) | 0.965 | < 4.99 | 0.973 | < 4.99 | 0.971 | < 4.99 | 0.103 | > 7.20
56 | OE33 (oesophagus, adherent) | 0.962 | < 4.99 | 0.938 | < 4.99 | 0.951 | < 4.99 | 0.315 | 6.56
57 | OSC-19 (head and neck, adherent) | 0.984 | < 4.99 | 0.987 | < 4.99 | 0.969 | < 4.99 | 0.2 | 6.91
